“And” between values parts separate entries of the source, which are not always exact repeats. Identical values can stand only once. Among all 410,000 compounds or so, about 6,400 (1.6%) were called active. The inconclusive results got no clear call from the source; some entries with a clear call stand among them for comparison. Calls come from the whole dose curve; as a rule, active = well fitted inhibition curve with a large enough effect; inconclusive = small, poorly fitted or top-dose-only effect; inactive = no such curve, though single readings can be large or run the other way. Where the call is inconclusive, the potency comes from a doubtful curve fit.
target: Glucagon-like peptide 1 receptor (Homo sapiens) (UniProt P43220); test: qHTS of GLP-1 Receptor Inverse Agonists (Inhibition Mode); settings: HEK293 GLP-1R CRE-luciferase, luminescence, 24 h, GLP-1R form is constitutively active; series mostly up to 38.3 µM; note: nearly all actives have a fitted effect of over 55% in size
In short: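 Cells are plated, allowed 12 hours at 37 deg C, then treated with compounds for 24 hr before luciferase detection reagent is added and luminescence is read after 12 min at room temperature. The HEK293 line carries constitutively active GLP-1R with a cAMP-responsive reporter.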
Potency is the fitted concentration of half-maximal effect; tags give direction and shape of the fitted curve.

Chain of UniProt P43220 (P43220 whole entry, looked up): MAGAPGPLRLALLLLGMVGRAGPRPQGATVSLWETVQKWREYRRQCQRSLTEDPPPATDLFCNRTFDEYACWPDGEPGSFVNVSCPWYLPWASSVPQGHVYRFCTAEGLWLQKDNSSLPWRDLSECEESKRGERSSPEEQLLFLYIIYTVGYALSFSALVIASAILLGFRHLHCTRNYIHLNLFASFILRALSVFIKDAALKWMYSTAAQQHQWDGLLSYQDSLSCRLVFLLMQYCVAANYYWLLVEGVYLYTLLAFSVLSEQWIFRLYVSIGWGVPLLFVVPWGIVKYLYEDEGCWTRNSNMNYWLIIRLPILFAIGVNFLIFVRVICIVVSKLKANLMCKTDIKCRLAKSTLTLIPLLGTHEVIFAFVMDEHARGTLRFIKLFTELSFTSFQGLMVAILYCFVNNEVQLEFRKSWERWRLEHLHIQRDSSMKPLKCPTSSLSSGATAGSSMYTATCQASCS

Potency, inconclusive:
C/C(=N\N(c1ccccc1)c1ccccc1)c1ccc(N)cc1 22.4 µM [inhibitor, single point]
COc1ccccc1/C(C)=N/Oc1cc(N)cc([N+](=O)[O-])c1 28.2 µM [inhibitor, single point]
CCN(CC)CCN(C(=O)c1cc(Cl)sc1Cl)c1nc2cc3c(cc2s1)OCO3 11.2 µM [inhibitor, partial curve, poor fit]
COc1cccc(OC)c1C(=O)NC(=S)N1CCN(c2ccc(C(F)(F)F)cc2[N+](=O)[O-])CC1 12.6 µM [inhibitor, single point]
COc1ccc(N2CCN(CCCNC(=O)c3nnc(Cc4ccccc4Cl)o3)CC2)cc1 17.8 µM [inhibitor, single point]
COc1ccc([C@H]2C[C@H](O)[C@@H](n3cc(-c4ccc(F)cc4)nn3)CN2C(=O)c2cccs2)cc1 10 µM [inhibitor, partial curve, poor fit]
Cc1cc(C)n2c(Nc3ccc4c(c3)OCCO4)c(-c3ccccc3)nc2n1 3.98 µM [inhibitor, partial curve, poor fit] and 2.82 µM [inhibitor, partial curve, poor fit]
CC(=O)c1cccc(NC(=O)Nc2cccnc2)c1 7.08 µM [inhibitor, partial curve, poor fit]
COc1cc(OC)c2c(-c3cccc(-c4ccc(C(F)(F)F)cc4)c3)cc(=O)oc2c1 3.98 µM [inhibitor, partial curve]
COc1ccc(/C=C/C(=O)Nc2cc(-c3nc4ccccc4o3)ccc2OC)cc1 1.58 µM [inhibitor, full curve, poor fit]
CN(C)CCC(c1ccc(Br)cc1)c1ccccn1 (stereo unspecified) 11.2 µM [inhibitor, single point] and 10 µM [inhibitor, partial curve, poor fit]
Cc1cccc(C(O)c2cnc(C)n2Cc2ccccc2)c1 (stereo unspecified) 28.2 µM [inhibitor, single point]
CC1(C)CC2CC(C)(CN2C(=O)COC(=O)c2cc(Cl)cc(Cl)c2N)C1 (stereo unspecified) 5.62 µM [inhibitor, full curve]
CC(C)Cc1cc(CN2CCC(CO)(Cc3cccc(C(F)(F)F)c3)CC2)[nH]n1 6.31 µM [inhibitor, partial curve, poor fit]
Cc1ccc2nc(SCC(=O)Nc3c(C)n(C)n(-c4ccccc4)c3=O)[nH]c2c1 0.501 µM [inhibitor, full curve, poor fit]
CC(OC(=O)c1cc(Cl)ccc1[N+](=O)[O-])C(=O)NC(C)c1ccc(F)cc1 (stereo unspecified) 14.1 µM [inhibitor, partial curve, poor fit]
Cc1cc(C)c(S(=O)(=O)N2CCCCC2CCNC(=O)C(=O)NCc2ccccn2)c(C)c1 (stereo unspecified) 7.08 µM [inhibitor, partial curve, poor fit]
CC1CC(C)(C)NC(=S)N1CCCC(=O)Nc1ccc(F)c(F)c1 (stereo unspecified) 15.8 µM [inhibitor, single point]
COc1ccccc1COc1cccn2c(N(C)C(=O)CCC3CCCC3)c(C)nc12 17.8 µM [inhibitor, partial curve, poor fit]
O=C(CSc1nnc(CN2CCCCC2)n1-c1ccccc1)c1ccc2c(c1)OCO2 0.891 µM [inhibitor, full curve, poor fit]
COc1ccc(CNc2oc(COc3ccc(Cl)cc3)nc2C#N)cc1 28.2 µM [inhibitor, single point]
Cc1ccccc1C(=O)NC(C)c1ccc2c(c1)CCCC2 (stereo unspecified) 20 µM [inhibitor, single point]
CCc1ccc2nc(N(CCCN(C)C)C(=O)c3ccc4c(c3)OCCO4)sc2c1 7.08 µM [inhibitor, partial curve, poor fit]
COc1ccc(Cl)cc1C(=O)NNC(=O)c1nn(C)c(=O)c2ccccc12 22.4 µM [inhibitor, single point]
CCc1ccc(N2C(=O)CC(N3CCN(Cc4ccc5c(c4)OCO5)CC3)C2=O)cc1 (stereo unspecified) 28.2 µM [inhibitor, single point]
Cn1cnnc1Sc1ccc(C(=O)NCCC(c2ccccc2)c2ccccc2)cc1[N+](=O)[O-] 10 µM [inhibitor, partial curve, poor fit]
CN1CCN(C2=C(Cl)C(=O)c3ccccc3C2=O)CC1 28.2 µM [inhibitor, single point]
Cc1cc(C)c(NC(=O)COc2cccnc2[N+](=O)[O-])c(C)c1 2.82 µM [inhibitor, full curve]
O=C1c2ccccc2C(=O)C1c1ccncc1 28.2 µM [inhibitor, single point]
N#CC(=C(O)CN1CCN(c2ccccc2F)CC1)c1nc(-c2ccc(Cl)cc2)cs1 3.16 µM [inhibitor, partial curve, poor fit]
COc1cccc(SCc2noc(C(=O)NC(C)C)c2C(=O)NC(C)C)c1 28.2 µM [inhibitor, single point]
Cc1ccc(C)c(S(=O)(=O)N2CCN(C(=O)Cn3c(C(F)(F)F)nc4ccccc43)CC2)c1 10 µM [inhibitor, partial curve, poor fit]
Cc1ccc(NC(=O)CSc2nnc(Cc3cccn3C)n2-c2ccc(F)cc2)cc1 12.6 µM [inhibitor, single point]
C#CCNC(=O)C1=C[C@H](c2ccc(C(F)(F)F)cc2)[C@@H](CCCO)[C@H](OCC)O1 22.4 µM [inhibitor, single point]
Cn1cc(/C=C(\NC(=O)c2ccccc2Cl)C(=O)NCCCn2ccnc2)c2ccccc21 28.2 µM [inhibitor, single point]
Cc1c(CCOC(=O)C23CC4CC(CC(C)(C4)C2)C3)sc[n+]1CC(=O)c1ccccc1 28.2 µM [inhibitor, single point]
CCOC(=O)C1CCN(Cc2ccc(OCc3ccccc3)cc2)CC1 11.2 µM [inhibitor, partial curve, poor fit]
CCCC(C)C(=O)Nc1ccc(F)c(Cl)c1 (stereo unspecified) 11.2 µM [inhibitor, single point]
Cc1ccc(C)c(NS(=O)(=O)c2ccc3c4c(cccc24)C(=O)N3)c1 12.6 µM [inhibitor, partial curve, poor fit]
CCCc1nc2cc(C)c(Br)c(C)n2c1Cc1ccsc1 12.6 µM [inhibitor, single point]
Cc1cccc(C)c1OCc1cc(C(=O)N2CCN(c3ccccc3)CC2C)no1 (stereo unspecified) 12.6 µM [inhibitor, single point]
COc1cccc(Nc2nc(-c3sc(C)nc3C)cs2)c1 28.2 µM [inhibitor, single point]
Cc1ccc(C23CC4CC(CC(C(=O)OCC(=O)N(C)C)(C4)C2)C3)cc1 11.2 µM [inhibitor, partial curve, poor fit]
Cc1ccc(-n2ncc(C(=O)NC3CCCC3)c2C2CCN(C(=O)OC(C)(C)C)CC2)c(C)c1 28.2 µM [inhibitor, single point]
O=C(Nc1ccc(C(=O)O)cc1)Nc1cccc2ccccc12 31.6 µM [inhibitor, single point]

Potency, inactive:
CN(C(=O)c1cccc(NC(=O)Cc2ccc(NC(=O)C3CCN(C(=O)CCc4ccccc4)CC3)cc2)c1)C1CCCCC1
CCOc1ccc(C(=O)Nc2nnc(S(=O)(=O)N(C)Cc3ccco3)s2)cc1
CN1C(=O)/C(=C/c2cn(CC(=O)N3CCCCC3)c3ccccc23)NC1=S
CCN1CCN(CCCNC(=O)c2cc3c(=O)[nH]c4ccccc4c3s2)CC1
CCN(CC)C(=O)c1sc2c(c1C)c(=O)n(-c1ccc(C)c(C)c1)c(=O)n2CC(=O)Nc1ccc(OC)cc1OC
Cc1cc(F)ccc1NC(=O)CCS(=O)(=O)c1cc2c3c(c1)CCN3C(=O)CC2
COc1ccc(OC)c(CNS(=O)(=O)c2cc(-c3onc(C)c3C)ccc2C)c1
COc1cc2c(cc1OC)C(C)N(C(=O)c1cc3c(=O)oc4ccc(C)cc4c3s1)CC2 (stereo unspecified)
O=C(c1ccccc1)N1CCC(c2nc3ccccc3o2)CC1
CN1C(=O)Cc2cc(S(=O)(=O)CCC(=O)Nc3ccc(Cl)cc3)ccc21
CN1C(=O)c2ccc(C(=O)NCc3ccccn3)cc2C1=O
CC1=C(C(N)=O)C(c2cccs2)n2ncnc2N1 (stereo unspecified)
Nc1nc2ncccn2c1-c1ccccc1
COc1ccc(C(C[N+](=O)[O-])C2(c3ccc(OC)c(OC)c3)C(=O)c3ccccc3C2=O)cc1 (stereo unspecified)

Potency, active:
CCC(=O)c1ccccc1OCCCN1CCC(Cc2ccccc2)CC1 7.94 µM
C=CCOC(=O)C(C#N)c1nc2ccccc2nc1N1CCC(C(=O)OCC)CC1 (stereo unspecified) 6.31 µM

Reference: PubChem BioAssay AID624417 (National Center for Advancing Translational Sciences (NCATS), 2012)
